Measured values: a collection of fitness landscapes (doi:10.1016/j.celrep.2020.107928)
Whole data set: some 81,000 sequences, median “one-hybrid fitness for binding NBS DNA” near -0.1, cut for the highest 2% near 0.36. Some of the results follow.

B1: Caulobacter ParB omega fusion; a variant is named by its letters at X, in order, B8GW30 (parent)
chain: MESVVVGEPGMSEGRRGLGRGLSALLGEVDAAPAQAPGEQLGGSREAPIEILQRNPDQPRRTFREEDLEDLSNSIREKGVLQPILVRPSPDTAGEYQIVAGERAWRAAQRAGLKTVPIMVRELDDLAVLEIGIIENVQRADLNVLEEALSYKVLMEKFERTQENIAQTIGKSXSHVANXMRLLXLPDEVQSYLVSGELTAXHARAIAAAADPVALAKQIIEGGLSVRETEALARKAPNLSAGKSKGGRPPRVKDTDTQALESDLSSVLGLDVSIDHRGSTGTLTITYATLEQLDDLCNRLTRGI

Variants of: B1
Assay: one-hybrid fitness for binding NBS DNA (the Noc-binding site; scaled: cognate 1, non-cognate 0); higher = stronger binding
Details: with NBS DNA site
How it was run: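 The reporter was HIS3, with the binding site 19 bp from the promoter, in E. coli USO used for bacterial one-hybrid selection of Caulobacter ParB libraries with four specificity codons randomised. Growth was on M9 lacking histidine, with 0.1 mM IPTG and 5 mM 3-AT, for 48 hours at 37°C. Illumina sequencing covered plasmids before and after selection; three replicate libraries were pooled and variants with under 10 reads dropped. A fitness score is the log change in variant-to-wild-type read ratio, rescaled to the cognate and non-cognate references.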

Point of comparison: QMKV, “one-hybrid fitness for binding NBS DNA” value 0.424. Against it:
- PQRY — lower, ≤ 0.2
- EVAV — lower, ≤ 0.2
- HMLN — lower, ≤ 0.2
- TKRP — lower, ≤ 0.2
- NCKN — lower, ≤ 0.2
- HVRE — lower, ≤ 0.2
- IHTS — lower, ≤ 0.2
- PRHN — lower, ≤ 0.2
- HFNL — lower, ≤ 0.2
- DSPL — lower, ≤ 0.2
- SSSA — lower, ≤ 0.2
- TSCE — lower, ≤ 0.2
- IRRR — higher, 0.601
- PHNP — lower, ≤ 0.2
- PCSE — lower, ≤ 0.2
- TAEN — lower, ≤ 0.2
- HTSK — lower, ≤ 0.2
- ASSG — lower, ≤ 0.2
- TPLC — lower, ≤ 0.2
- RSCI — lower, ≤ 0.2
- RQIL — lower, ≤ 0.2
- TSPC — lower, ≤ 0.2
- AFTQ — lower, ≤ 0.2
- HTDL — lower, ≤ 0.2
- PSNN — lower, ≤ 0.2
- FRGG — lower, ≤ 0.2
- MFVS — lower, ≤ 0.2
- NHDY — lower, ≤ 0.2
- MRFN — lower, ≤ 0.2
- QCHH — lower, 0.333
- KGAG — lower, ≤ 0.2
- SVWR — lower, ≤ 0.2
- CVQT — lower, ≤ 0.2
- HFES — lower, ≤ 0.2
- QMGP — lower, ≤ 0.2
- PGNV — lower, ≤ 0.2
- RSDL — lower, ≤ 0.2
- HAHM — lower, ≤ 0.2
- RTYE — lower, ≤ 0.2
- KQCG — lower, ≤ 0.2
- SLPC — lower, ≤ 0.2
- TEER — lower, ≤ 0.2
- NWIS — lower, ≤ 0.2
- DMRY — lower, ≤ 0.2
- GNRW — lower, ≤ 0.2
- RCSH — lower, 0.203
- KKAL — lower, ≤ 0.2
- MQNC — lower, ≤ 0.2
- YNMG — lower, ≤ 0.2
- KPFV — lower, ≤ 0.2
- FPSS — lower, ≤ 0.2
- NIRQ — lower, ≤ 0.2
- CHAG — lower, ≤ 0.2
- RLGL — lower, ≤ 0.2
- RYPN — lower, ≤ 0.2
- RLCK — lower, ≤ 0.2
- RSPF — lower, ≤ 0.2
- IRFE — lower, ≤ 0.2
- PPGF — lower, ≤ 0.2
- KLIT — lower, ≤ 0.2
- WVSV — lower, ≤ 0.2
- FGAY — lower, ≤ 0.2
- RANH — lower, ≤ 0.2
- YAIS — lower, ≤ 0.2
- MNLR — lower, ≤ 0.2
- QPPI — lower, ≤ 0.2
- AGIL — lower, ≤ 0.2
- HNYW — lower, ≤ 0.2
- GNMF — lower, ≤ 0.2
- LITP — lower, ≤ 0.2
- KHTK — lower, ≤ 0.2
- WCVR — lower, ≤ 0.2
- RVTA — lower, ≤ 0.2
- QPLP — lower, ≤ 0.2
- TEHT — lower, ≤ 0.2
- LKHG — lower, ≤ 0.2
- WVLR — lower, ≤ 0.2
- SIIR — lower, ≤ 0.2
- RYAY — lower, ≤ 0.2
- DTWT — lower, ≤ 0.2
- PTKW — lower, ≤ 0.2
- TRYT — lower, 0.334
- TTPF — lower, ≤ 0.2
- YESS — lower, ≤ 0.2
- HTSN — lower, ≤ 0.2
- CNSF — lower, ≤ 0.2
- AFVR — lower, ≤ 0.2
- QPPA — lower, ≤ 0.2
- PHKP — lower, ≤ 0.2
- NSNT — lower, ≤ 0.2
- EIRG — lower, ≤ 0.2
- NMLN — lower, ≤ 0.2
- WTNL — lower, ≤ 0.2
- RSRD — lower, ≤ 0.2
- IDAW — lower, ≤ 0.2
- RCRG — lower, ≤ 0.2
- YLAS — lower, ≤ 0.2
- KALF — lower, ≤ 0.2
- CQLA — lower, ≤ 0.2
- GDLC — lower, ≤ 0.2
- TEVC — lower, ≤ 0.2
- GRDG — lower, ≤ 0.2
- MEAT — lower, ≤ 0.2
- AVPW — lower, ≤ 0.2
- VRTN — lower, ≤ 0.2
- RQEQ — lower, ≤ 0.2
- FHVR — lower, ≤ 0.2
- SCLG — lower, ≤ 0.2
- ACDT — lower, ≤ 0.2
- LKKY — lower, ≤ 0.2
- GPLS — lower, ≤ 0.2
- QSQE — lower, ≤ 0.2
- NYMT — lower, ≤ 0.2
- GDVG — lower, ≤ 0.2
- NKLV — lower, ≤ 0.2
- QSVW — lower, ≤ 0.2
- VTLC — lower, ≤ 0.2
- MTER — lower, ≤ 0.2
- MREL — lower, ≤ 0.2
- EDER — lower, ≤ 0.2
- STYS — lower, ≤ 0.2
- CDIS — lower, ≤ 0.2
- QHCR — higher, 0.473
- VSAP — lower, ≤ 0.2
- LDLS — lower, ≤ 0.2
- KIKS — lower, ≤ 0.2
- QQQY — lower, 0.247
- SHKC — lower, ≤ 0.2
- CPDS — lower, ≤ 0.2
- PRTQ — lower, ≤ 0.2
- YGLC — lower, ≤ 0.2
- HSKC — lower, ≤ 0.2
- ARRV — lower, ≤ 0.2
- IPLA — lower, ≤ 0.2
- TTPL — lower, ≤ 0.2
- YERS — lower, ≤ 0.2
- TFVR — lower, ≤ 0.2
- PTFQ — lower, ≤ 0.2
- DQPE — lower, ≤ 0.2
- LNKN — lower, ≤ 0.2
- MSRM — lower, ≤ 0.2
- TIAF — lower, ≤ 0.2
- FVRT — lower, ≤ 0.2
- DPMD — lower, ≤ 0.2
- RWQC — lower, ≤ 0.2
- QLRW — lower, ≤ 0.2
- RLLQ — lower, ≤ 0.2
- WHID — lower, ≤ 0.2
- VPFY — lower, ≤ 0.2
- YLYM — lower, ≤ 0.2
- MSMK — lower, ≤ 0.2
- FKKR — lower, ≤ 0.2
- TQKE — lower, ≤ 0.2
- ANRM — lower, ≤ 0.2
- QQTW — lower, ≤ 0.2
- CPFS — lower, ≤ 0.2
- LRHF — lower, ≤ 0.2
- LAAP — lower, ≤ 0.2
- KRCV — lower, ≤ 0.2
- HRRS — lower, ≤ 0.2
- CSKG — lower, ≤ 0.2
- SRYR — lower, ≤ 0.2
- LAHA — lower, ≤ 0.2
- ITPE — lower, ≤ 0.2
- ITIG — lower, ≤ 0.2
- YFDM — lower, ≤ 0.2
- KIPS — lower, ≤ 0.2
- VCAW — lower, ≤ 0.2
- EYDT — lower, ≤ 0.2
- GFRG — lower, ≤ 0.2
- RYGK — lower, ≤ 0.2
- HCRS — lower, ≤ 0.2
- GACC — lower, ≤ 0.2
- RPMC — lower, ≤ 0.2
- GQDL — lower, ≤ 0.2
- FLVV — lower, ≤ 0.2
- CPHF — lower, ≤ 0.2
- QWVT — lower, ≤ 0.2
- RGLK — lower, ≤ 0.2
- EVNT — lower, ≤ 0.2
- GTKR — lower, 0.255
- AVQE — lower, ≤ 0.2
- KRTD — lower, ≤ 0.2
- DAQS — lower, ≤ 0.2
- TQAM — lower, ≤ 0.2
- NLAT — lower, ≤ 0.2
- HTCG — lower, ≤ 0.2
- VRNY — lower, ≤ 0.2
- ASTT — lower, ≤ 0.2
- LNGL — lower, ≤ 0.2
- LQYD — lower, ≤ 0.2
- HHTV — lower, ≤ 0.2
- ANPY — lower, ≤ 0.2
- MNGG — lower, ≤ 0.2
